Reference: PubChem BioAssay AID1030 (National Center for Advancing Translational Sciences (NCATS), 2008)
Out of some 220,000 compounds screened, about 16,000 (7.3%) were called active. The inconclusive results got no clear call from the source; some entries with a clear call stand among them for comparison. Calls come from the whole dose curve; as a rule, active = well fitted inhibition curve with a large enough effect (not every such curve was filed as active); inconclusive = small, poorly fitted or top-dose-only effect, or another doubt; inactive = no such curve, though single readings can be large or run the other way. No potency is given beside an inconclusive call; the fits are too rough.

target: Aldehyde dehydrogenase 1A1 (Homo sapiens) (UniProt P00352); assay: qHTS Assay for Inhibitors of Aldehyde Dehydrogenase 1 (ALDH1A1); details: Purified ALDH1A1, NADH fluorescence, propionaldehyde substrate; series mostly up to 75.3 µM; activity, negative = inhibition: at the top concentration;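 for activity, negative = inhibition: plate controls were no enzyme wells and a reference inhibitor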
Potency is the fitted concentration of half-maximal effect; tags give direction and shape of the fitted curve.

Chain of UniProt P00352 (P00352 whole entry, looked up): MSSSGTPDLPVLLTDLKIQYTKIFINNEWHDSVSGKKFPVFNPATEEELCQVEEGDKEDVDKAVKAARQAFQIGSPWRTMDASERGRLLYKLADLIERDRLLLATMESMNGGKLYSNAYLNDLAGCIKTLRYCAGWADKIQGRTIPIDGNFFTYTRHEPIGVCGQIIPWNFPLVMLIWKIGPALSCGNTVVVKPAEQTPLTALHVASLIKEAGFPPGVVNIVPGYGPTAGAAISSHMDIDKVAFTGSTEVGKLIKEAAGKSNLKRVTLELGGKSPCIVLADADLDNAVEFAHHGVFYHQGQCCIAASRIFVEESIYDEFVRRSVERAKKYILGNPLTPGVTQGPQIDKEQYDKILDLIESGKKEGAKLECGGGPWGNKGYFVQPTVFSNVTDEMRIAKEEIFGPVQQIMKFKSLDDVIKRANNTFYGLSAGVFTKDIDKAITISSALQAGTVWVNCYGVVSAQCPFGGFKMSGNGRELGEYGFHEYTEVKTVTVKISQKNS

Compound	Potency	activity, negative = inhibition
CCCCCCCCCCCCCCC[C@H](O)[C@@H](N)CO	inactive	–
O=C(NCCCN1CCCC1)C1CCN(C(=O)c2cc3sccc3n2Cc2ccc(F)cc2)CC1	inconclusive [inhibitor, partial curve]	–
COc1cc(Cl)c(S(=O)(=O)NCc2ccccn2)cc1Cl	–	inactive: -4%
CCOc1ccc(/C=C2/C(=O)N(c3ccc(OC)cc3)C(=S)N2CC(=O)OC)cc1OCC	inconclusive [inhibitor, partial curve]	–
Cc1c(C(=O)OC(C)C)nnn1-c1nonc1N	inconclusive [inhibitor, single point]	–
COc1cc(NC(=O)c2cccs2)c(C(=O)OCC(=O)c2cc(C)n(-c3ccccc3)c2C)cc1OC	–	inactive: -1.38%
CCN1CCCc2cc(CN(CCN3CCOCC3)C(=S)Nc3ccccc3OC)ccc21	inconclusive [inhibitor, single point]	–
COc1cc(/C=N\NC(=O)c2ccc(C)nc2)ccc1OC(=O)c1ccc2c(c1)OCO2	inconclusive [inhibitor, single point]	–
CC(=O)N(C(C)=O)c1ncnc2c1c(-c1ccc(Cl)cc1)nn2C(C)(C)C	inconclusive [inhibitor, single point]	–
C=CCn1c(=O)/c(=C/c2cc(OC)c(OC)c(OC)c2)s/c1=C(/C#N)c1nc2ccccc2n1C	active: 1.41 µM	–
COc1ccc(CNc2cc(C)ccc2C)c(OC)c1OC	inconclusive [inhibitor, single point]	–
O=C1CCC(=O)N1CC(=O)N(c1ccccc1)c1ccccc1	–	inactive: -8.82%
Cc1cc(C)n(NC(=S)NC2CCCC2)c(=O)c1C#N	–	inactive: 17.8%
c1ccc(CSc2ncnc3ccccc23)cc1	inconclusive [inhibitor, partial curve]	–
Clc1ccccc1NN(Cc1ccncc1)c1ccccc1Cl	inconclusive [inhibitor, single point]	–
O=C(COC(=O)C1CCCCC1)Nc1ccc([N+](=O)[O-])cc1	inconclusive [inhibitor, single point]	–
CCC(CC)C(=O)Nc1cccc(SC)c1	–	inactive: 4.59%
O=C(OCc1ccc(Cl)cc1)c1ccccc1C(=O)c1ccccc1	inconclusive [inhibitor, single point]	–
COc1ccc(Cn2c(SCc3cc(C)ccc3C)nc3cc(OC)c(OC)cc3c2=N)cc1	inconclusive [inhibitor, full curve]	–
O=C(Nc1ccc(-c2nc3ccccc3o2)c(O)c1)c1cc(-n2cnnc2)ccc1Cl	inconclusive [inhibitor, partial curve]	–
Nc1c(C(=O)NCc2cccnc2)sc(=S)n1-c1ccccc1	active: 8.91 µM	–
S=C(NCC1CCCO1)N1CCN(c2nc(-c3ccc(Cl)cc3)cs2)CC1 (stereo not drawn)	inconclusive [inhibitor, partial curve, poor fit]	–
O=C(CCCCCN1C(=O)c2ccccc2C1=O)Oc1ccc2c3c(c(=O)oc2c1)CCC3	inconclusive [inhibitor, partial curve]	–
COc1ccc2c(c1)c(CC(=O)Nc1ccc(C(C)=O)cc1)c(C)n2C(=O)c1ccc(Cl)cc1	–	inactive: 3.95%
COC(=O)NC(/C=C/c1ccccc1)C(C(C)=O)C(=O)OC (stereo not drawn)	–	inactive: -3.35%

Compound	Potency	activity, negative = inhibition
O=c1oc2ccccc2cc1-c1csc(Nc2ccc(O)cc2)n1	–	inactive: -10.9%
Cc1ccc(-c2nnc(SCC(=O)N/N=C/c3c(C)nn(-c4ccccc4)c3C)n2-c2ccccc2)cc1	inconclusive [inhibitor, single point]	–
CCn1c(O)c(C=Nc2ccccc2)sc1=O	inconclusive [inhibitor, partial curve]	–
CCN1CC(CN(C)Cc2nc(-c3cccs3)no2)CC1=O (stereo not drawn)	–	inactive: 3.92%
O=C(NCc1ccco1)C1CCC(CNS(=O)(=O)c2cccc3cccnc23)CC1 (stereo not drawn)	active: 12.6 µM	–
COc1ccc(S(=O)(=O)N2CN(Cc3ccco3)c3nc4ccccc4nc32)cc1	inconclusive [inhibitor, partial curve]	–
Cc1ccc2nc(NCc3ccccc3)c(C=O)c(=O)n2c1	inconclusive [inhibitor, partial curve]	–
O=C(NNS(=O)(=O)c1ccc(Br)cc1)c1cccs1	–	inactive: -1.57%
COc1ccc2c(=O)c(Oc3ccc(C(=O)O)cc3)c(C(F)(F)F)oc2c1	–	inactive: 20.9%
Oc1ccc(/C=N/n2c3ccccc3c3ccccc32)cc1	–	inactive: -9.26%
Cc1noc(C)c1-c1nc(CS(=O)(=O)c2ccccc2)no1	inconclusive [inhibitor, single point]	–
COc1ccccc1CN1CCNC(=O)C1CC(=O)NCCOc1cccnc1 (stereo not drawn)	–	inactive: -2.04%
O=C(Nc1cc(Cl)cc(Cl)c1)c1coc(=O)c(Br)c1	inconclusive [inhibitor, partial curve]	–
CCCCCCNC(=O)c1c(O)c2cccc3c2n(c1=O)CCC3	inconclusive [inhibitor, partial curve]	–
COc1ccc(NC(=O)CCCn2c(=O)c3sccc3n(Cc3ccccc3)c2=O)cc1	–	inactive: 7.66%
CCN(CC)c1ccc(C(=O)N/N=C(\C)c2ccc(O)cc2)cc1	active: 25.1 µM	–
COC(=O)CSCC(=O)Nc1nnc(-c2ccccc2C)s1	inconclusive [inhibitor, partial curve]	–
Cc1cc(C)c(S(=O)(=O)NCC(=O)NCc2ccccn2)c(C)c1	–	inactive: -9.87%
COc1ccc(/C=N/NC(=O)c2ccn[nH]2)cc1COc1ccc(Cl)cc1Cl	inconclusive [inhibitor, single point]	–
COc1ccc(C(=O)Nc2cc(OC)c(NC(=O)c3ccco3)cc2OC)cc1	inconclusive [inhibitor, single point]	–
O=S(=O)(NCCSc1nnnn1-c1ccccc1)c1cccs1	active: 12.6 µM	–
Cc1cc(=O)oc(C)c1C(=O)NCC1COc2ccccc2O1 (stereo not drawn)	inconclusive [inhibitor, single point]	–
CCN(CC)S(=O)(=O)c1ccc(NC(=O)C(OC)c2ccccc2)cc1 (stereo not drawn)	inconclusive [inhibitor, single point]	–
Cc1ccc(C(=O)N2CCN(S(=O)(=O)N3CCOCC3)CC2)cc1	–	inactive: 4.89%
CCCSc1nc(NCc2ccco2)c2c3c(sc2n1)COC(C)(C)C3	inconclusive [inhibitor, single point]	–

Compound	Potency	activity, negative = inhibition
S=C1NNC2(CC3CC2C2CCCC32)NN1 (stereo not drawn)	inconclusive [inhibitor, partial curve]	–
COc1cc2c(cc1/C=C1/NC(=O)N(c3ccccc3)C1=O)OCO2	active: 3.98 µM	–
CCOc1ccccc1Oc1coc2cc(O)ccc2c1=O	inconclusive [inhibitor, single point]	–
O=[N+]([O-])c1ccc(Cl)c(/C=N/n2c(COc3ccccc3)n[nH]c2=S)c1	active: 14.1 µM	–
O=C(CCc1ccccn1)N1CCCC(CNS(=O)(=O)c2cccs2)C1 (stereo not drawn)	–	inactive: -5.78%
Cc1cc(=O)n2nc(N3CCC(C(=O)N4CCN(Cc5ccccc5)CC4)CC3)sc2n1	inconclusive [inhibitor, single point]	–
COc1ccc(CN2CC(=O)N(c3ccccc3C)C2=S)cc1OC	–	inactive: 11.3%
Cc1cccc(C)c1OCC(=O)Nc1ccccc1C(F)(F)F	–	inactive: -4.86%
CC(C)OC(=O)c1ccc(OC(=O)c2cccnc2)cc1	inconclusive [inhibitor, partial curve]	–
O=C1C=C[C@@H](O)[C@@H]2[C@H]3C(=O)N(c4ccc(F)cc4F)C(=O)[C@@H]3CC[C@@H]12	inconclusive [inhibitor, partial curve]	–
CC(=O)c1ccc(NC(=S)NC(=O)c2c(Cl)c(C)nn2C)cc1	inconclusive [inhibitor, single point]	–
CCOC(=O)Cn1nc(C)c(NC(=O)c2ccc([N+](=O)[O-])c(C)c2)c1C	–	inactive: -2.07%
O=C(Nc1c(C(=O)O)[nH]c2ccccc12)NC1CCCCC1	inconclusive [inhibitor, partial curve]	–
Cc1ccc(CN(C(=O)c2csnn2)C(C(=O)NC2CCCC2)c2ccc(C)o2)cc1 (stereo not drawn)	active: 14.1 µM	–
O=C(c1cccc(S(=O)(=O)NCCOc2ccccc2)c1)N1CCN(c2ncccn2)CC1	inconclusive [inhibitor, single point]	–
CSc1cc2c(cc1C(F)(F)F)N(C(=O)Nc1cccnc1)CC2	–	inactive: 0.433%
N#CC(C#N)=Cc1ccc(OC(=O)c2ccccn2)cc1	active: 2 µM	–
COc1ccccc1N(CC(=O)Nc1ccc(S(=O)(=O)N2CCCCC2)cc1)S(C)(=O)=O	inconclusive [inhibitor, single point]	–
CCn1cc(C(=O)O)c(=O)c2cc(F)c(N3CCN(S(=O)(=O)c4ccc(Br)cc4)CC3)cc21	inconclusive [inhibitor, partial curve]	–
CCOc1ccc(C(=O)NC(=S)Nc2cccc(NC(=O)c3ccco3)c2)cc1[N+](=O)[O-]	active: 3.16 µM	–
O=C(C1CCN(C2CC(=O)N(Cc3ccccc3)C2=O)CC1)N1CCCCCC1 (stereo not drawn)	active: 11.2 µM	–
CC(C)(CNc1ccc([N+](=O)[O-])cc1Cl)CNS(C)(=O)=O	inconclusive [inhibitor, partial curve]	–
COc1ccc(/C=N\NC(=O)c2cccc([N+](=O)[O-])c2)cc1Cn1cc([N+](=O)[O-])cn1	active: 20 µM	–
